# The campaign covered roughly 4,800 compounds. About 420 (8.8%) showed an effect of 50% or more. This is one part of the list.
# Test system: Plasmodium falciparum
# Experiment: Confirmatory screen in NF54 nanoGlo assay, in single point, at 2uM, 72h
# Type: functional, Erythrocyte
# Details: timepoint 72 hour
row,SMILES,% Inhibition [%]
1,Nc1n[nH]c2c(Cl)c3nnc(-c4ccccc4)n3c(Cl)c12,8
2,O=C(NCc1ccoc1)NCC1(c2ccccc2)CC1,-12
3,Cc1nn(C)c(NC(=O)Nc2cccc(Cl)c2)c1C1=CCCCC1,-5
4,O=C(Nc1ccc(N2CCCC2)c(F)c1)C(=O)Nc1ccon1,-17
5,CNC(=O)c1ccc(N(C)Cc2ccc(O)cc2)nn1,0
6,Fc1ccc(-c2cc3c(N4CCCCCC4)nccn3n2)cc1,4
7,O=C(CCCC(=O)C1CC1)NC[C@H]1CCCOC1,-8
8,CN(C)c1ccc(NC(=O)C2(N(Cc3ccccc3)C(=O)Cn3nnc4ccccc43)CCCCC2)cc1,26
9,CC(C)Cc1nsc(N2CCOC3CCN(C)CC32)n1 (centres undefined),-1
10,CCn1ncc(-c2cc(C(F)(F)F)c3c(C(C)C)nn(-c4ccc(F)cc4)c3n2)c1C,-8
11,O=C(O)C1CCC(=O)N(C2CC2)C1c1ccccc1 (centres undefined),3
12,COc1cccc(CNC(=O)Cn2c(=O)n(C)c(=O)c3c2c(-c2ccccc2)cn3C)c1OC,-5
13,COc1ccc(OC)c(CCNC(=O)Cn2ccc3cc(S(=O)(=O)N4CCCC4)ccc32)c1,7
14,CCc1ccccc1NC(=O)Cn1cnc2nc(N(C)Cc3ccccc3)sc2c1=O,-16
15,CC(C)C1(CNC(=O)C(=O)c2cc(S(N)(=O)=O)cn2C)CC1,-3
16,C[C@H]1CCc2c(cnc3c(C(=O)NC4CC4)cnn23)C1,-8
17,CC(=O)c1cccc(NC(=O)c2nonc2C)c1,-11
18,CCCn1nc(-n2cnnc2)c(NS(=O)(=O)c2ccc(OC)c(OC)c2)c1C,0
19,COc1ncnc(OC)c1C(=O)N1CCC[C@H]1C=Cc1ccccc1,-12
20,Cc1ccc(C(=O)OCC(=O)Nc2ccc3c(c2)OCO3)cn1,-2
21,CCCn1c(C)nnc1COC(=O)c1ncoc1C,-5
22,CS(=O)(=O)[C@H]1CCCN(c2nc3cc(F)ccc3o2)C1,-10
23,Cn1cc(CCNC(=O)C2=NN(c3ccccc3)[C@H](C(N)=O)C2)cn1,-5
24,CCc1ccc(NCc2c(OCc3ccc(Br)cc3)ccc3ccccc23)cc1,-11
25,O=C1NC2=Nc3ccccc3NC(c3ccccc3)=C2[C@H](c2cccc3ncccc23)N1,19
26,O=C1C[C@@H](c2cccc(Br)c2)c2c(O)nc(N3CCOCC3)nc2N1,-9

row,SMILES,% Inhibition [%]
1,Cc1nn(C)cc1[C@H](C)NC(=O)c1cc(-c2ccccc2)on1,0
2,O=C(NC1CCN(Cc2ccccc2)CC1)c1cnn2c(-c3ccc4c(c3)OCO4)ccnc12,3
3,Cc1ccc(S(=O)(=O)N2CCN(C(=O)N3CCOCC3)[C@@H]2C)cc1,-8
4,CC(=O)N1CCN(C(=O)CC2CC3CCC2C3)CC1 (centres undefined),-15
5,COc1ccccc1-n1c(=O)[nH]c2nc(N3CCN(c4ccccn4)CC3)ncc2c1=O,-6
6,Cc1ccc(NCc2ncccn2)cc1OCC1CCCCC1,1
7,Cn1c(CCNC(=O)CCc2cccnc2)nc2cc(Cl)ccc21,-3
8,Cc1ccc(S(=O)(=O)Nc2cc3nc4ccccc4nc3n2CCc2ccccc2)cc1,100
9,Cn1c(-c2ccccc2)cn2cc(-c3ccc(F)cc3)nc12,1
10,COc1ccc2[nH]c3c(c2c1)CCN(C(=O)c1ccc(C)c(C)c1)[C@@H]3c1ccccc1OC,84
11,O=c1[nH]c(=O)n(-c2ncnc3c2cnn3-c2ccccc2)cc1Cl,5
12,CCO/N=C(\Nc1ccccc1)c1nonc1N,-6
13,COc1ccc(CC(=O)NCc2nnc3n2CCC3)cc1,12
14,Cc1cnc(N[C@@H](CN)C2CCCCC2)nc1,-13
15,CS(=O)(=O)C[C@H](NCc1nc2c(s1)CCC2)c1ccccc1,0
16,C=CCCCN(C)C(=O)c1cc(S(N)(=O)=O)cc(Cl)c1F,1
17,N#CCC(=O)Nc1nc(-c2ccc(Oc3ccccc3)cc2)cs1,-4
18,CC(=O)Nc1ccc(C)cc1S(=O)(=O)N1CC=C(c2c(C)n(Cc3ccccc3C)c3ccccc23)CC1,91
19,CN1CCC[C@H](C(=O)Nc2nc(C3CC3)cs2)C1,-12
20,CCOc1ccc(Nc2c3ccccc3nc3ccccc23)cc1,86
21,COc1ccc(CN2CC(C)OC3(CCOC3)C2)cc1Cl (centres undefined),-3
22,CCc1ccc(S(=O)(=O)N2CCn3c(nnc3[C@H]3CCN(C(C)C)C3)C2)cc1,-8
23,O=C(CNC(=O)c1ccc(C(F)(F)F)cc1)Nc1cnc2c(c1)COCC2,-1
24,Cc1cc(C(=O)NCC[C@H](C)n2nc(C)cc2C)c2c(-c3ccc(F)cc3)noc2n1,-9
25,COc1ccccc1Cc1nnc2n1CCCC2,0
26,CC1CCN(C[C@H](O)C(F)(F)F)CC1,-7

row,SMILES,% Inhibition [%]
1,Cn1cc(Cl)c(C(=O)Nc2cccc(S(=O)(=O)N3CCOCC3)c2)n1,-2
2,CN(C)S(=O)(=O)c1cc(C(=O)N2CCCO2)co1,-1
3,CCc1ccsc1CN=C(N)NC1CCCCC1,-3
4,CCc1cc(C(=O)N2CCCCC2)c2c(C)nn(-c3ccc(OC)cc3)c2n1,-5
5,O=C(C[C@H](NCCO)C(=O)O)c1ccc2c(c1)CCCC2,-5
6,COCCOCC(=O)Nc1cc(Cl)c(C)cc1Br,-4
7,COc1cccc(-c2nc3n(c2C(=O)Nc2cccc(Cl)c2)CCS3(=O)=O)c1,-3
8,Cc1oc(-c2ccc(C(=O)Nc3cccc(Cl)c3C)cc2)nc1COc1ccccc1,-2
9,CCOc1cccc(CNC(=O)c2nn[nH]c2Nc2ccc(C)c(C)c2)c1,1
10,COc1cccc(C(N)=O)c1OCC(=O)NC(C)C,-10
11,Cc1nc(NCc2coc3ccccc23)n(C)n1,-12
12,Cc1ccccc1N1CCN(C(=O)CCC2CCN(c3cc(NC4CC4)ncn3)CC2)CC1,-10
13,Cc1cc(OCc2ccc(Br)cc2)c(C)cc1CN1CCOCC1,-1
14,O=C1\N=C(c2ccc(Cl)cc2)/N=N\C(c2ccc(Cl)cc2)=N/[C@]1(O)C(F)(F)F,-18
15,O=C(C[C@H]1CCOC1)Nc1cc2ccc(Br)cn2n1,1
16,CC(C1Cc2ccccc2O1)N(C)Cc1nccn1S(=O)(=O)N(C)C (centres undefined),-9
17,Cc1nccn1-c1ncc(NC(=O)Nc2ccc3c(c2)OCO3)cn1,21
18,CCN(CC)c1ccc(C(=O)Nc2ccc3nc(N4CCCC4)cc(C)c3c2)cc1,85
19,O=C(NCc1ccc(N2CCCC2=O)cc1)c1cnc2n1CCCC2,-14
20,O=C(N[C@@H](N1CCCCCC1)C(Cl)(Cl)Cl)c1cccc(Cl)c1,-10
21,COCCNc1ccc(S(N)(=O)=O)cc1N,-3
22,Cc1ccc(S(=O)(=O)c2c(C)cc(-c3ccccc3)nc2N2CCOCC2)cc1,0
23,CS(=O)(=O)N1CCC(C(=O)Nc2cnn(Cc3c(F)cc(F)c(F)c3F)c2)CC1,5
24,Cc1cccc(N2CCN(CCCNC(=O)CCn3c(=O)c(C)nc4cc(C)c(C)cc43)C[C@@H]2C)c1,0
25,CCc1ccc(-n2c(=O)[nH]c3nc(N4CCN(c5ccccc5F)CC4)ncc3c2=O)cc1,-17
26,CC1(C)CN(C(=O)c2c[nH]c3ccccc23)CC[S@@+]1[O-],-8

row,SMILES,% Inhibition [%]
1,CC(C)CN1C(=O)CC[C@@H](C(=O)NCCCOC(C)C)[C@@H]1c1cccnc1,-13
2,O=C(Nc1ccc(Cl)cc1)c1cccc(N2C(=O)C3CCC(c4ccccc4)CC3C2=O)c1 (centres undefined),-5
3,CCN1CCC[C@@H]1CNC(=O)c1[nH]nc2c1CCc1ccccc1-2,-11
4,N#Cc1ccc(NCCc2csc(N)n2)nc1,-11
5,O=C(Nc1ccccc1Cl)Nc1cccc2c(-c3ccccc3)c(C(=O)N3CCOCC3)[nH]c12,2
6,O=C1NS(=O)(=O)c2cc(N3CCN(Cc4ccccc4)CC3)ccc21,2
7,CCS(=O)(=O)CCNC(=O)c1cccc(F)c1F,0
8,Cc1ccc2sc(C(=O)N3CC(OCC(=O)N(C)C)C3)cc2c1,4
9,Cn1c(-c2ccccc2)c[n+](CC(=O)c2ccc3c(c2)OCO3)c1N,1
10,CCc1nc(NS(=O)(=O)c2cc(Cl)sc2Cl)no1,-4
11,CCOC(=O)c1c(CN2CCOCC2)n(-c2ccc(C)cc2)c2ccc(Oc3nccc(Nc4ccccc4)c3C#N)cc12,-5
12,Cc1cccc(CN(Cc2cccc(C)n2)C[C@H]2CCCCO2)n1,90
13,COCCCNC(=O)c1cncc(Br)c1,-3
14,CC(C)NC(=O)C(=O)Nc1nccs1,-14
15,C[C@H](C#N)CN(C)c1nc(C2CC2)nc2scc(-c3ccccc3)c12,1
16,COc1ccc(F)cc1S(=O)(=O)N1CCc2noc(N)c2C1,68
17,CCc1n[nH]c(C(=O)N2CC3CCCN3CC2CC)c1Br (centres undefined),7
18,Cc1ccc(C2=C[C@@H](c3ccc(Cl)cc3)n3nc(NC(=O)c4ccccc4)nc3N2)cc1,94
19,Cc1cc(S(=O)(=O)NC(=O)CCC(C)C)c(C)o1,-7
20,COC[C@H](NCCc1cc(F)cc2c1OCOC2)C1CC1,63
21,Cc1cc(C)cc(-n2c(=O)c3sccc3n(CC(=O)NCc3ccccc3Cl)c2=O)c1,-15
22,CCCCNC(=O)Nc1cccc(C#CCN)n1,-2
23,CCN(CCNC(=O)C1CC1c1cccc(Cl)c1Cl)CC(F)F (centres undefined),-2
24,CCC1=Nc2ccccc2N=C(NC(=O)C(C)C)[C@H]1c1ccc(F)cc1,20
25,Cn1ccc(CNC(=O)c2c(Br)cnn2C)n1,-15
26,CN1C(=O)[C@H](OC(=O)COc2ccccc2)N(c2cccc(Cl)c2)C1=O,-11

# — ChEMBL document CHEMBL4888484, “Replenishing the malaria drug discovery pipeline: Screening and hit evaluation of the MMV Hit Generation Library 1 (HGL1) against asexual blood stage Plasmodium falciparum ,using a nano luciferase reporter read-out” (2022)
